# Reference: publication PMC12820563, “FoxP3 forms a head-to-head dimer in vivo and stabilizes its multimerization on adjacent microsatellites”
# The list shows a part of the results.
# Molecular target: T1, MBP-FoxP1dN (Mus musculus, UniProt P58462 326-579)
# T1 sequence: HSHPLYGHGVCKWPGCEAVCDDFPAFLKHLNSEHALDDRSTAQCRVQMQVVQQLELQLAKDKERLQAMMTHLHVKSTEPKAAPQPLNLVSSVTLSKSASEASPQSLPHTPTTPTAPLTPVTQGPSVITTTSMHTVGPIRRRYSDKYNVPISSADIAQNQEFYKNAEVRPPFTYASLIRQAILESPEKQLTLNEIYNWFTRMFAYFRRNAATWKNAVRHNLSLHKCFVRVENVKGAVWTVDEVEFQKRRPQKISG
# Assay: PD-seq (MBP pull-down with sequencing); 20 mM Tris-HCl pH 7.5, 100 mM NaCl, 1.5 mM MgCl2, 0.4 uM protein, 0.1 uM dsDNA library, 30 min, room temperature, amylose pull-down; high values mean tight binding
# Conditions: protein: recombinant; tags: His6-MBP; chain copies: 2; dsDNA, one strand shown
# How it was run: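 In Tris pH 7.5 buffer with NaCl and MgCl2, 0.4 µM His6-MBP-tagged mouse FoxP3 or FoxP1 fragment lacking the N-terminus, from E. coli, met 0.1 µM Klenow-filled double-stranded degenerate DNA library for 30 min at room temperature. Three washes on amylose resin followed capture of the complexes, then proteinase K release of DNA, PCR barcoding and Illumina sequencing. Binding is taken as pooled-replicate reads-per-million enrichment of pull-down relative to input.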
row,Sequence,binding signal
1,GATGATTGTTCTCCCAGCTGATGAATTTGACTCCTCGAGTAAACAAATTTTCCTAATCTTTCTGTTCAAGCGCCATCTAC,0.809 RPM ratio (pull-down/input)
2,GATGATTGTTCTCCCAGCTGATGAATTCTTTCGGTCGAGTAAACAAATTTTCCTAATCTTTCTGTTCAAGCGCCATCTAC,0.84 RPM ratio (pull-down/input)
3,GATGATTGTTCTCCCAGCTGATGAATTATAAGGGTCGAGTAAACAAATTTTCCTAATCTTTCTGTTCAAGCGCCATCTAC,0.839 RPM ratio (pull-down/input)
4,GATGATTGTTCTCCCAGCTGATGAATTTAATCTCTCGAGTAAACAAATTTTCCTAATCTTTCTGTTCAAGCGCCATCTAC,0.896 RPM ratio (pull-down/input)
5,GATGATTGTTCTCCCAGCTGATGAATTACTTTTTTCGAGTAAACAAATTTTCCTAATCTTTCTGTTCAAGCGCCATCTAC,1.28 RPM ratio (pull-down/input)
6,GATGATTGTTCTCCCAGCTGATGAATTCGCGTATTCGAGTAAACAAATTTTCCTAATCTTTCTGTTCAAGCGCCATCTAC,0.979 RPM ratio (pull-down/input)
7,GATGATTGTTCTCCCAGCTGATGAATTTAGTTACTCGAGTAAACAAATTTTCCTAATCTTTCTGTTCAAGCGCCATCTAC,1.15 RPM ratio (pull-down/input)
8,GATGATTGTTCTCCCAGCTGATGAATTCCGACGTTCGAGTAAACAAATTTTCCTAATCTTTCTGTTCAAGCGCCATCTAC,0.859 RPM ratio (pull-down/input)
9,GATGATTGTTCTCCCAGCTGATGAATTAGCCTGGTCGAGTAAACAAATTTTCCTAATCTTTCTGTTCAAGCGCCATCTAC,0.765 RPM ratio (pull-down/input)
10,GATGATTGTTCTCCCAGCTGATGAATTTGCCGCTTCGAGTAAACAAATTTTCCTAATCTTTCTGTTCAAGCGCCATCTAC,0.897 RPM ratio (pull-down/input)
11,GATGATTGTTCTCCCAGCTGATGAATTCCCCCCGTCGAGTAAACAAATTTTCCTAATCTTTCTGTTCAAGCGCCATCTAC,0.765 RPM ratio (pull-down/input)
12,GATGATTGTTCTCCCAGCTGATGAATTTAAGCGCTCGAGTAAACAAATTTTCCTAATCTTTCTGTTCAAGCGCCATCTAC,0.841 RPM ratio (pull-down/input)
13,GATGATTGTTCTCCCAGCTGATGAATTGATCCGGTCGAGTAAACAAATTTTCCTAATCTTTCTGTTCAAGCGCCATCTAC,0.845 RPM ratio (pull-down/input)
14,GATGATTGTTCTCCCAGCTGATGAATTCGCCGGTTCGAGTAAACAAATTTTCCTAATCTTTCTGTTCAAGCGCCATCTAC,0.778 RPM ratio (pull-down/input)
15,GATGATTGTTCTCCCAGCTGATGAATTTGTGGGGTCGAGTAAACAAATTTTCCTAATCTTTCTGTTCAAGCGCCATCTAC,0.973 RPM ratio (pull-down/input)
16,GATGATTGTTCTCCCAGCTGATGAATTGAGTGTATCGAGTAAACAAATTTTCCTAATCTTTCTGTTCAAGCGCCATCTAC,1.16 RPM ratio (pull-down/input)
17,GATGATTGTTCTCCCAGCTGATGAATTCCGACGGTCGAGTAAACAAATTTTCCTAATCTTTCTGTTCAAGCGCCATCTAC,0.765 RPM ratio (pull-down/input)
18,GATGATTGTTCTCCCAGCTGATGAATTAATCCCATCGAGTAAACAAATTTTCCTAATCTTTCTGTTCAAGCGCCATCTAC,0.897 RPM ratio (pull-down/input)
19,GATGATTGTTCTCCCAGCTGATGAATTGTCTGCATCGAGTAAACAAATTTTCCTAATCTTTCTGTTCAAGCGCCATCTAC,1.24 RPM ratio (pull-down/input)
20,GATGATTGTTCTCCCAGCTGATGAATTCCTCGTCTCGAGTAAACAAATTTTCCTAATCTTTCTGTTCAAGCGCCATCTAC,0.759 RPM ratio (pull-down/input)

row,Sequence,binding signal
1,GATGATTGTTCTCCCAGCTGATGAATTATCCATCTCGAGTAAACAAATTTTCCTAATCTTTCTGTTCAAGCGCCATCTAC,0.978 RPM ratio (pull-down/input)
2,GATGATTGTTCTCCCAGCTGATGAATTTATAGGTTCGAGTAAACAAATTTTCCTAATCTTTCTGTTCAAGCGCCATCTAC,0.975 RPM ratio (pull-down/input)
3,GATGATTGTTCTCCCAGCTGATGAATTGAAAATATCGAGTAAACAAATTTTCCTAATCTTTCTGTTCAAGCGCCATCTAC,1.26 RPM ratio (pull-down/input)
4,GATGATTGTTCTCCCAGCTGATGAATTTTTTACCTCGAGTAAACAAATTTTCCTAATCTTTCTGTTCAAGCGCCATCTAC,0.943 RPM ratio (pull-down/input)
5,GATGATTGTTCTCCCAGCTGATGAATTGCATTCTTCGAGTAAACAAATTTTCCTAATCTTTCTGTTCAAGCGCCATCTAC,1.61 RPM ratio (pull-down/input)
6,GATGATTGTTCTCCCAGCTGATGAATTTCGAACTTCGAGTAAACAAATTTTCCTAATCTTTCTGTTCAAGCGCCATCTAC,0.785 RPM ratio (pull-down/input)
7,GATGATTGTTCTCCCAGCTGATGAATTCAACTCCTCGAGTAAACAAATTTTCCTAATCTTTCTGTTCAAGCGCCATCTAC,0.73 RPM ratio (pull-down/input)
8,GATGATTGTTCTCCCAGCTGATGAATTCTGACCTTCGAGTAAACAAATTTTCCTAATCTTTCTGTTCAAGCGCCATCTAC,0.83 RPM ratio (pull-down/input)
9,GATGATTGTTCTCCCAGCTGATGAATTAGCGCGATCGAGTAAACAAATTTTCCTAATCTTTCTGTTCAAGCGCCATCTAC,0.894 RPM ratio (pull-down/input)
10,GATGATTGTTCTCCCAGCTGATGAATTAGGTGTTTCGAGTAAACAAATTTTCCTAATCTTTCTGTTCAAGCGCCATCTAC,1.09 RPM ratio (pull-down/input)
11,GATGATTGTTCTCCCAGCTGATGAATTGACGTCCTCGAGTAAACAAATTTTCCTAATCTTTCTGTTCAAGCGCCATCTAC,1.06 RPM ratio (pull-down/input)
12,GATGATTGTTCTCCCAGCTGATGAATTGGCCTGGTCGAGTAAACAAATTTTCCTAATCTTTCTGTTCAAGCGCCATCTAC,0.77 RPM ratio (pull-down/input)
13,GATGATTGTTCTCCCAGCTGATGAATTGCATCTCTCGAGTAAACAAATTTTCCTAATCTTTCTGTTCAAGCGCCATCTAC,1.54 RPM ratio (pull-down/input)
14,GATGATTGTTCTCCCAGCTGATGAATTAAAAATCTCGAGTAAACAAATTTTCCTAATCTTTCTGTTCAAGCGCCATCTAC,0.927 RPM ratio (pull-down/input)
15,GATGATTGTTCTCCCAGCTGATGAATTCCTTTGCTCGAGTAAACAAATTTTCCTAATCTTTCTGTTCAAGCGCCATCTAC,0.796 RPM ratio (pull-down/input)
16,GATGATTGTTCTCCCAGCTGATGAATTCTCATCCTCGAGTAAACAAATTTTCCTAATCTTTCTGTTCAAGCGCCATCTAC,0.81 RPM ratio (pull-down/input)
17,GATGATTGTTCTCCCAGCTGATGAATTTTGCGACTCGAGTAAACAAATTTTCCTAATCTTTCTGTTCAAGCGCCATCTAC,0.897 RPM ratio (pull-down/input)
18,GATGATTGTTCTCCCAGCTGATGAATTGAAGAGATCGAGTAAACAAATTTTCCTAATCTTTCTGTTCAAGCGCCATCTAC,0.804 RPM ratio (pull-down/input)
19,GATGATTGTTCTCCCAGCTGATGAATTAAATTCATCGAGTAAACAAATTTTCCTAATCTTTCTGTTCAAGCGCCATCTAC,0.922 RPM ratio (pull-down/input)
20,GATGATTGTTCTCCCAGCTGATGAATTAGGGACATCGAGTAAACAAATTTTCCTAATCTTTCTGTTCAAGCGCCATCTAC,1.04 RPM ratio (pull-down/input)
